# Results published in PubChem BioAssay AID1671194 (National Center for Advancing Translational Sciences (NCATS), 2021).
# The campaign covered roughly 140,000 compounds. About 240 (0.17%) were called active. Inconclusive means that the source gave no clear call. Such entries were picked first, then a sample of the others. The call rests on the fitted dose curve; in most records, active means well fitted inhibition curve with a large enough effect; inconclusive means small, poorly fitted or top-dose-only effect; inactive means no such curve, though single readings can be large or run the other way. Potencies of inconclusive entries are doubtful fits and often do not repeat.
# Assay: Primary qHTS assay for inhibitors of alpha-synuclein gene (SNCA) expression; further: nearly all actives have a fitted effect of over 45% in size
# Details: HEK-293 SNCA-luciferase knock-in, luminescence, 24 h; series mostly up to 57.2 µM
# Potency means the concentration at half of the fitted maximal effect; tags describe the fitted curve by direction and shape.
row,SMILES,Potency
1,O=C(CN1N=C(c2ccc(Cl)cc2)CCC1=O)NCCc1ccc(Cl)cc1,"inconclusive: 39.8 µM [inhibitor, single point]"
2,CC(=O)N1CCc2c(sc(NC(=O)CSc3ccccc3)c2-c2nc3ccccc3s2)C1,"inconclusive: 35.5 µM [inhibitor, partial curve, poor fit]"
3,Cc1c(C(=O)NCc2cccc(Cl)c2)sc2ncnc(N(C)C3CCCCC3)c12,"inconclusive: 28.2 µM [inhibitor, single point]"
4,O=C1c2c(nc(COc3cc(F)cc(F)c3)n2Cc2ccccc2)NCCN1Cc1ccccc1,inactive
5,COCc1cc(NCc2cccnc2Oc2cccc(C(F)(F)F)c2)ncn1,inactive
6,CCn1c(=O)c2c(cc(C)n2C)n(CC(=O)Nc2ccc(C)cc2Cl)c1=O,"inconclusive: 0.708 µM [inhibitor, full curve, poor fit]"
7,O=C(Nc1ccccc1F)N1CC2CCC(C1)N2Cc1cccc(Cl)c1,"inconclusive: 10 µM [inhibitor, partial curve, poor fit]"
8,O=C(CC1N=C2c3ccccc3N=C(SCc3cccc(Cl)c3)N2C1=O)NCc1ccc2c(c1)OCO2 (stereo unspecified),"inconclusive: 35.5 µM [inhibitor, single point]"
9,O=C(CN1C(=O)NC(c2ccc(Cl)cc2)C2=C1COC2=O)NC1CCCC1 (stereo unspecified),"inconclusive: 39.8 µM [inhibitor, single point]"
10,N#Cc1cccc(C2CCN(c3cc(C4CC4)ncn3)CC2)c1,inactive
11,COc1ccc(C(=O)N2CCC3(CC2)C(OC)C(=O)N3CC2CC2)cc1F (stereo unspecified),"inconclusive: 15.8 µM [inhibitor, partial curve, poor fit]"
12,CCc1ccc(NC(=O)c2sc3ncnc(N(C)C4CCCCC4)c3c2C)cc1,"inconclusive: 7.08 µM [inhibitor, single point]"
13,COc1ccc(Cl)cc1C(=O)N1CCN(C(=O)c2nnn3c2COC(c2ccccc2)C3)CC1 (stereo unspecified),"inconclusive: 39.8 µM [inhibitor, single point]"
14,COc1ccc(CNC(=O)Nc2ccc3c(c2)N(C)C(=O)c2ccccc2S3)cc1,"inconclusive: 39.8 µM [inhibitor, single point]"
15,CNc1ncccc1C(=O)N1CCCC2(C=Cc3ccccc3O2)CC1 (stereo unspecified),"inconclusive: 2.24 µM [inhibitor, partial curve, poor fit]"
16,CN(C)C(=O)c1ccc(-c2ccc3ncnc(N(C)C)c3c2)cc1,"inconclusive: 3.16 µM [inhibitor, full curve, poor fit]"
17,Cc1cnc(CC2CCNC2)n1C(C)C (stereo unspecified),inactive
18,CCc1cccc(NC(=O)Cn2c(-c3cccc(Cl)c3)nc(C)c(CCO)c2=O)c1,inactive
19,CCOc1cc(=O)n2c(c1C(=O)Nc1cc(OC)ccc1OC)CCCC2,"inconclusive: 1.41 µM [inhibitor, full curve, poor fit]"
20,COc1ccccc1NC(=O)c1cc2ccc3cccnc3c2[nH]1,"inconclusive: 7.08 µM [inhibitor, single point]"
21,COc1cccc(CN2C(=O)c3ccccc3Sc3ccc(C(=O)N(C)Cc4ccccc4)cc32)c1,"inconclusive: 39.8 µM [inhibitor, single point]"

row,SMILES,Potency
1,CCc1ccc(CN2CCC(C(=O)Nc3ccc(Oc4cccnc4)cc3)CC2)o1,"inconclusive: 39.8 µM [inhibitor, single point]"
2,O=C(NCCCN1CCc2ccccc2C1)C1CCCCC(=O)N1Cc1ccccc1 (stereo unspecified),"inconclusive: 44.7 µM [inhibitor, partial curve, poor fit]"
3,O=C(NCc1ccccc1)C1=NO[C@@H]2CN(Cc3cccc(F)c3)C[C@H]12,"inconclusive: 56.2 µM [inhibitor, single point]"
4,CCOC(=O)C1CCN(C(=O)c2nc3sccn3c2-c2ccc(C(F)(F)F)cc2)CC1,inactive
5,COc1ccc(Nc2ccnc(N3CCN(C(=O)c4ccc(Cl)cc4)CC3)n2)cc1,inactive
6,O=C1NCCCCCCN(Cc2ccncc2)[C@@H]2CN(C(=O)C3CCCCC3)CC[C@@H]12,inactive
7,CCn1nccc1C(=O)N1CCC2(CC1)CN(C1CCC1)CC2COC (stereo unspecified),inactive
8,Cc1cccc(-c2noc([C@@H]3Cc4nc[nH]c4CN3C(=O)CC(C)(C)CC(=O)O)n2)c1,"inconclusive: 8.91 µM [inhibitor, full curve, poor fit]"
9,CC(C)(C)C(=O)N1C[C@H]2OC(=O)N(CCc3cccc(Cl)c3)[C@H]2C1,"inconclusive: 6.31 µM [inhibitor, single point]"
10,Cc1cc(CN2CCC3(CC2)CCN(C(=O)c2ccccn2)CC3CO)on1 (stereo unspecified),inactive
11,Cc1ccc([S+](=O)([O-])N2CCCC(c3nn(-c4ccc(F)cc4)c(=O)[nH]3)C2)cc1 (stereo unspecified),"inconclusive: 2 µM [inhibitor, partial curve, poor fit]"
12,Cc1cc(-c2ccc(C)c(S(=O)(=O)NC(c3cccs3)C(C)C)c2)on1 (stereo unspecified),"inconclusive: 39.8 µM [inhibitor, single point]"
13,Cc1cccn2c(CC(=O)N[C@H](c3ccccn3)C3CC(O)C3)cnc12 (stereo partly specified),"inconclusive: 8.91 µM [inhibitor, single point]"
14,CCOC(=O)c1c(C)oc2ccc(N(C(=O)c3ccncc3)S(=O)(=O)c3ccc(CC)cc3)cc12,"inconclusive: 31.6 µM [inhibitor, partial curve, poor fit]"
15,CCOC(=O)c1c(C)[nH]c(CCC(=O)Nc2cc(Cl)ccc2OC)c1C,"inconclusive: 39.8 µM [inhibitor, single point]"
16,O=C1C(SCCO)=C(SCCO)C(=O)c2ccccc21,"inconclusive: 31.6 µM [inhibitor, single point]"
17,COc1cccc2c1C(=O)c1c(O)c3c(c(O)c1C2=O)C[C@@](O)(C(C)=O)C[C@H]3O[C@H]1C[C@H](N)[C@H](O)[C@H](C)O1,active: 0.242 µM
18,CN(C)S(=O)(=O)N(CC(=O)Nc1ccc(C(F)(F)F)cc1)c1ccccc1,"inconclusive: 39.8 µM [inhibitor, single point]"
19,Cc1sc(-n2cccc2)c(C(C)NC(=O)Nc2cccc(C(F)(F)F)c2)c1C (stereo unspecified),"inconclusive: 39.8 µM [inhibitor, partial curve, poor fit]"
20,CN1CCN(C(=O)c2cc(-c3cccc(C(F)(F)F)c3)c3nncn3n2)CC1,inactive
21,COc1ccc(Cl)cc1-c1ccc2c(c1)C(=O)N1C[C@H](O)C[C@H]1C(=O)N2,inactive

row,SMILES,Potency
1,CCOc1ccccc1CN1CCC2(CCN(C(=O)c3ccccc3C)CC2)Oc2ccccc21,"inconclusive: 28.2 µM [inhibitor, single point]"
2,COc1ccccc1-c1nn2c(=O)cc(CN3CCN(C(=O)Nc4ccc(C)cc4Cl)CC3)nc2s1,"inconclusive: 2.24 µM [inhibitor, full curve]"
3,CCOc1ccc(NC(=O)Cn2c(=O)n(CCCC(=O)NCCc3ccc(Cl)cc3)c(=O)c3ccccc32)cc1,"inconclusive: 0.158 µM [inhibitor, partial curve, poor fit]"
4,O=C(NCCc1ccccc1F)c1nc2sccn2c1-c1ccc(C(F)(F)F)cc1,"inconclusive: 39.8 µM [inhibitor, single point]"
5,CCOc1ccccc1C(=O)N1CC[C@@H]2CN(S(C)(=O)=O)[C@@H]2C1,"inconclusive: 39.8 µM [inhibitor, single point]"
6,CSCC(=O)N[C@H]1CCN2C(=O)c3cc(-c4ccc(Cl)cc4)ccc3NC(=O)[C@H]12,inactive
7,COC(=O)c1cc(NC(=O)c2cc3c(-c4ccccc4F)nn(C)c3s2)cc(C(=O)OC)c1,"inconclusive: 39.8 µM [inhibitor, single point]"
8,CCOC(=O)c1cc2c(=O)n3ccccc3nc2n(Cc2ccco2)c1=NC(=O)c1ccccc1Br,"inconclusive: 7.08 µM [inhibitor, single point]"
9,Cc1cccc(N2CCN(C(=O)c3ccc4c(c3)N(C)C3CCCCCN3C4=O)CC2)c1 (stereo unspecified),"inconclusive: 3.16 µM [inhibitor, partial curve, poor fit]"
10,CC(NC(=O)c1ccccc1F)C(=O)N1CCN(c2ccccn2)CC1 (stereo unspecified),"inconclusive: 39.8 µM [inhibitor, single point]"
11,CCN1CC(c2ccccc2)CC2(CCN(c3cc(N)ncn3)CC2)C1 (stereo unspecified),"inconclusive: 6.31 µM [inhibitor, partial curve, poor fit]"
12,O=C1CC2(CCN(C(=O)c3ccc4c(c3)OCO4)CC2)Oc2cc(Cl)ccc21,inactive
13,C[S+](=O)([O-])N1CCn2cc(C(=O)NCc3ccc(Cl)nc3)nc2C1,"inconclusive: 1.26 µM [inhibitor, full curve, poor fit]"
14,CCOc1ccc(NC(=O)Cn2nc(-c3ccncc3)ccc2=O)cc1,"inconclusive: 11.2 µM [inhibitor, partial curve]"
15,CCc1cccc2c(C(CC(=O)NCCc3ccc(OC)c(OC)c3)c3ccccc3OC)c[nH]c12 (stereo unspecified),"inconclusive: 39.8 µM [inhibitor, single point]"
16,COc1ccccc1N1CCN(S(=O)(=O)c2c(C)sc3ncn(CC(=O)Nc4ccccc4F)c(=O)c23)CC1,active: 2.51 µM
17,NC(=O)c1ccccc1OCC(=O)N1CC(CNc2ccccc2)C2(C1)CN(c1ccccc1)C2 (stereo unspecified),"inconclusive: 12.6 µM [inhibitor, partial curve, poor fit]"
18,CCOc1ccc(/C=C/c2nc3ccccc3n2S(=O)(=O)c2ccc(Br)cc2)cc1,"inconclusive: 39.8 µM [inhibitor, single point]"
19,c1ccc(OCC2CN(Cc3ccc4[nH]ccc4c3)CC23CN(c2ccccc2)C3)cc1 (stereo unspecified),active: 20 µM
